The full ranking holds about 110,000 compounds; the median of “z-score” is about -0.1, and the highest 2% start at about 2. The list shows a part of the results.
These compounds were tested against Metabotropic glutamate receptor 8 (Rattus norvegicus) (UniProt P70579) (assay: rat mGluR8 modulators via GIRK flux, primary screen, cell-based, thallium flux, HTS (AID 488969)). Settings: HEK293 rat mGluR8, GIRK (G protein-gated inwardly rectifying potassium channel) thallium flux, FluoZin2; at 10 µM; stronger effect = higher value; submaximal glutamate (EC20) added with thallium.
UniProt P70579, sequence (P70579 whole entry, looked up): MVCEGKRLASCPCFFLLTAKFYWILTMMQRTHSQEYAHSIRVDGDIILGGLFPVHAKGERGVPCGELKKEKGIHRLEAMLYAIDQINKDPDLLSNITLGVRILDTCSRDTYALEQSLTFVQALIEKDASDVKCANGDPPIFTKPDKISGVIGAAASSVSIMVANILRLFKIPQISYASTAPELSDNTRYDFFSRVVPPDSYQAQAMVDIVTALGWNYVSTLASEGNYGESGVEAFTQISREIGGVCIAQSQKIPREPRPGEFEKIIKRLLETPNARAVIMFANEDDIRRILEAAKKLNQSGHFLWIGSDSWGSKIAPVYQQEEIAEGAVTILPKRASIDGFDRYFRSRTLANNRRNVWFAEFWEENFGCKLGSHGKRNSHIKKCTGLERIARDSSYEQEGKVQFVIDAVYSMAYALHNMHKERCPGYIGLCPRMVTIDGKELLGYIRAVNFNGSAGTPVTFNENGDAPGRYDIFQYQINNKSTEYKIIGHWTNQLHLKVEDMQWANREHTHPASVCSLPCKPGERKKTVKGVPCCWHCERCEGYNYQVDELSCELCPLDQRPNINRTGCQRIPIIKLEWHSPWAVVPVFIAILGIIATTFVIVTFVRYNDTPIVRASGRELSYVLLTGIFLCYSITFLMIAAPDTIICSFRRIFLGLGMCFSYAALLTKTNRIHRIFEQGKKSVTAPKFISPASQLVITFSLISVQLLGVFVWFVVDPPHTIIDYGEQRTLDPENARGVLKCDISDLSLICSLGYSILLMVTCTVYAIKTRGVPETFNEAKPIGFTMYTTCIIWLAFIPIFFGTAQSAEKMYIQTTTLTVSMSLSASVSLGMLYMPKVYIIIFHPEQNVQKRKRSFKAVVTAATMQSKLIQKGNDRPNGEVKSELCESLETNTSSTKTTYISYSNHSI

SMILES	z-score
CCOC(=O)N=S(=O)(Oc1ccc([N+](=O)[O-])cc1)c1ccc(Cl)cc1 (configuration not stated)	-1.84
Cc1ccccc1C(=O)NC(=S)Nc1sc2c(c1C#N)CCC(C)C2 (configuration not stated)	1.82
O=C(Nc1ccc2c(c1)OCO2)c1nn(-c2ccccc2)c(=O)c2ccccc12	-0.0301
COc1ccccc1N1CCN(C(=O)/C=C/c2cccs2)CC1	0.139
CCn1c(SCC(=O)c2ccccc2)nnc1-c1cc2cc(Br)ccc2o1	-0.172
CCCc1c(O)c2ccccc2n(-c2ccccc2)c1=O	-0.342
CCCCNC(=O)CSc1nc2n[nH]c(C)c2c(=N)n1-c1cccc(Cl)c1C	0.0108
COc1ccc2oc(=O)c(C(=O)N3CCN(c4ccccc4)CC3)cc2c1	-0.433
CCOc1cc(C2NC(=O)NC(O)(C(F)(F)F)C2C(=O)c2ccc(OC)cc2)ccc1O (configuration not stated)	1.51
Cc1cc(OCC(=O)Nc2ccc(F)c(F)c2)nc(C(C)C)n1	0.156
O=c1oc(-c2ccccc2F)nc2c1cnn2-c1ccccc1	0.0417
Cc1cccc(NC(=O)c2c(O)c3cccc4c3n(c2=O)CC4)c1	0.0242
Cc1ccc(C(=O)N/N=c2\sc3ccccc3n2C)cc1	0.37
COc1c(F)c(F)c(C(=O)O)c(Nc2ccc(C)cc2)c1F	-0.0424
Cc1cc(C)nc(NC(=O)CCC2CCCC2)c1	-0.0409
CC12Cc3ccc4ccccc4c3C=C1C[N+](C)(C)C2 (configuration not stated)	-0.171
CC1CCN(c2nc(CN3CCCCC3)nc3scc(-c4ccccc4)c23)CC1	-0.0127
N#Cc1nc(-c2ccc(F)cc2)oc1NCc1ccccc1	-0.026
O=C1CC(Sc2nnnn2C2CCCCC2)C(=O)N1c1ccccc1 (configuration not stated)	-0.00221

SMILES	z-score
CCOC(=O)CC1C(=O)NCCN1S(=O)(=O)c1ccccc1Cl (configuration not stated)	0.0105
CN(C)S(=O)(=O)c1cc(NC(=O)CN2CCN(c3ccccc3)CC2)ccc1Cl	-0.192
O=C(C1CCCN(S(=O)(=O)c2ccccc2)C1)N1CCN(c2ncccn2)CC1 (configuration not stated)	-0.0124
Cc1nc(N(C)C)ncc1C(=O)O	0.166
Fc1ccccc1CCNc1nnnn1-c1ccccc1	0.648
CC(C)NC(=S)N/N=C/c1sc(N2CCCCC2)nc1-c1cccs1	0.593
CCc1cc(Br)ccc1NC(=O)C1CCCO1 (configuration not stated)	-0.336
O=C(COc1ccc(Cl)cc1)Nc1cnn(Cc2c(Cl)cccc2Cl)c1	-0.00257
Cc1cccc(NC(=O)CSc2nccn2C)c1	0.299
O=C1CCCC2=C1C(c1cccs1)Nc1ccc3ncccc3c12 (configuration not stated)	0.0208
CN(C)CCC(O)(c1ccccc1)c1ccccc1	-0.0232
CN(CCCNC(=O)C1CCC(=O)N1Cc1ccccc1Cl)c1ccccc1 (configuration not stated)	-0.262
Cc1ccc(NC(=O)CC2SC(=NCC3CCCO3)NC2=O)cc1Cl (configuration not stated)	-0.0211
O=S(=O)(c1ccccc1)N1CCSC1c1ccco1 (configuration not stated)	-0.0642
Cn1nc(C(=O)Nc2cccnc2)c2ccccc2c1=O	-0.305
C/C(=N\Nc1nccnc1Cl)c1ccc([N+](=O)[O-])cc1	-0.378
CC1(C)CC(=O)C2=C(C1)N(c1ccc(F)cc1)C(=O)NC2(C(F)(F)F)C(F)(F)F	-0.103
COc1ccc(N2CCN(C(=O)CCN3C(=O)c4ccccc4S3(=O)=O)CC2)cc1	-0.374
O=C(NCc1ccc2c(c1)OCO2)C1CCC(CNc2c(N3CCCCC3)c(=O)c2=O)CC1 (configuration not stated)	1.42

SMILES	z-score
CCOC(=O)N1CCN(CCC(=O)Nc2cc(OC)cc(OC)c2)CC1	-0.19
COc1cc(S(=O)(=O)N(Cc2cccs2)C2CC2)ccc1-n1cnnn1	-0.419
CC1=C(C(N)=O)C(c2ccccn2)n2nc(-c3ccccc3Cl)nc2N1 (configuration not stated)	-0.00632
Cc1ccc(NC(=O)c2ccccc2OCC(=O)c2ccccc2)cc1	-0.0627
C1CCC(NC2=NCCC2)CC1	0.29
S=C1NC(c2ccccc2)=NCN1c1ccc(Br)cc1	0.919
O=C(C1CC(c2ccccc2O)=NO1)N1CCc2ccccc2C1 (configuration not stated)	-0.961
COc1ccccc1C(=O)n1nc(-c2ccco2)nc1N	0.0838
CCCSc1nnc(CNC(=O)C23CC4CC(CC(C4)C2)C3)n1Cc1ccccc1	-0.148
Oc1ccc2ccccc2c1N=Nc1ccccn1	2.19
Cc1nc2ccccc2nc(=O)c1NNc1ccccc1	-0.17
C=CC(=O)Nc1ccc(Br)cc1	0.0392
C=CCN1C(=O)/C(=C\c2ccc(Cl)cc2)N=C1SCC(=O)NC1CCCCC1	-0.393
COc1cccc(/C=N/NC(=O)CNC(=O)C2COc3ccccc3O2)c1O (configuration not stated)	-0.314
Cc1ccsc1C1NC(=O)c2ccccc2N1 (configuration not stated)	-0.0765
O=C(ONc1ccc(N=NC(=O)c2ccccc2O)cc1)c1ccccc1	0.531
COc1ccc(NC(=O)Cn2cnc3c(cnn3-c3ccc(C)c(C)c3)c2=O)c(OC)c1	-0.0912
c1ccc2c(N3CCCCC3)ncnc2c1	-0.0556
CCOC(=O)Cn1ccc(O)c(Cc2ccc(Cl)cc2Cl)c1=O	0.286

Source: PubChem BioAssay AID488969 (Vanderbilt High Throughput Screening Facility, 2010)
